From the antibiotic and cytotoxicity screens of Wong et al. (2023)
Some of the results follow.

The compounds below were run on HepG2 (assay: cytotoxicity call (relative viability < 0.9)). Conditions: 10 µM.

| SMILES | cytotoxicity call |
| --- | --- |
| C[C@@H]1CN([C@@H](C)CO)C(=O)c2cccc(NS(=O)(=O)c3cn(C)cn3)c2O[C@@H]1CN(C)S(=O)(=O)c1cn(C)cn1 | inactive |
| C[C@@H]1CN([C@@H](C)CO)C(=O)c2cc(NS(=O)(=O)c3ccc(F)cc3)ccc2O[C@@H](C)CCCCO[C@H]1CN(C)C(=O)CCC(F)(F)F | inactive |
| Cc1ccc(S[C@]2(C(=O)NC(C)C)CC(=O)N(C3CCCCC3)[C@@H]2c2ccc(CO)cc2I)cc1 | inactive |
| Cc1cnc2c(c1N1CCOCC1)c(=O)n(C)c(=O)n2C | inactive |
| C[C@H]1CN([C@@H](C)CO)C(=O)c2cc(NC(=O)CCC(F)(F)F)ccc2O[C@@H]1CN(C)Cc1ccc(C(F)(F)F)cc1 | inactive |
| C[C@H]1CN([C@@H](C)CO)S(=O)(=O)c2ccc(C#CC3CCCC3)cc2O[C@@H]1CN(C)Cc1cncnc1 | inactive |
| COc1ccc([Si](C)(C)[C@H]2[C@H](CCO)O[C@@]3(C(=O)N(Cc4ccccc4)c4ccc(N(C=O)c5ccccc5)cc43)[C@@H]2C)cc1 | active |
| C[C@H](CO)N1C[C@H](C)[C@H](CN(C)C(=O)Nc2cccc3ccccc23)Oc2ccc(NC(=O)Cc3ccccc3)cc2C1=O | inactive |
| C[C@H]1CN([C@@H](C)CO)C(=O)Cc2cc(NS(=O)(=O)c3ccccc3)ccc2O[C@H]1CN(C)S(=O)(=O)c1ccccc1 | inactive |
| CNC(=O)CO[C@H]1COC2(CCN(C(=O)c3ccn(C)n3)CC2)C1 | inactive |
| C[C@@H]1CN([C@H](C)CO)C(=O)Cc2cc(NC(=O)NC3CCCCC3)ccc2O[C@@H]1CN(C)Cc1ccc(Cl)c(Cl)c1 | active |
| COc1ccc(S(=O)(=O)N2CCCN(S(=O)(=O)c3ccc(OC)c(OC)c3)CC2)cc1OC | inactive |
| C[C@H]1CN([C@@H](C)CO)C(=O)Cc2cc(NS(=O)(=O)c3cn(C)cn3)ccc2O[C@@H]1CN(C)Cc1ccncc1 | inactive |
| Cc1noc(C)c1NC(=O)N(C)C[C@@H]1OCCCC[C@H](C)Oc2ccc(NC(=O)C3CCCCC3)cc2C(=O)N([C@H](C)CO)C[C@H]1C | inactive |
| C[C@@H]1CCCCO[C@H](CN(C)Cc2ccc(C(=O)O)cc2)[C@@H](C)CN([C@@H](C)CO)C(=O)c2cc(NC(=O)C3CCCCC3)ccc2O1 | inactive |
| C[C@H]1CN([C@@H](C)CO)C(=O)CCCn2cc(nn2)CO[C@@H]1CN(C)S(=O)(=O)c1ccc2c(c1)OCCCO2 | inactive |
| C[C@@H]1CCCCO[C@H](CN(C)Cc2ccc(C(=O)Nc3ccccc3N)cc2)[C@@H](C)CN([C@H](C)CO)C(=O)c2cc(N(C)C)ccc2O1 | inactive |
| C[C@H]1CN([C@@H](C)CO)S(=O)(=O)c2ccc(C3=CCCC3)cc2O[C@H]1CN(C)C(=O)C1CCOCC1 | inactive |
| Cn1c(=O)c2c(ncn2CCO)n(C)c1=O | inactive |
| O=C(C[C@@H]1CC[C@@H]2[C@H](COC[C@H](O)CN2S(=O)(=O)c2ccccc2)O1)NCc1ccc2c(c1)OCO2 | inactive |

| SMILES | cytotoxicity call |
| --- | --- |
| C[C@H](CO)N1C[C@H](C)[C@@H](CN(C)Cc2ccc(Oc3ccccc3)cc2)Oc2ccc(NS(=O)(=O)c3ccc(Cl)cc3)cc2CC1=O | inactive |
| COCC#Cc1cnc2c(c1)C(=O)N([C@@H](C)CO)C[C@@H](C)[C@@H](CN(C)C(=O)CN1CCOCC1)O2 | inactive |
| O=C(CCCCC(=O)N/N=C/c1cc(I)cc(I)c1O)NO | inactive |
| Cc1cc(NC2CCCCC2)ncn1 | inactive |
| CC(C)(N)c1ccccc1Br | inactive |
| COc1ccc(S(=O)(=O)Nc2ccc3c(c2)CC(=O)N([C@H](C)CO)C[C@@H](C)[C@@H](CN(C)S(=O)(=O)c2c(C)noc2C)O3)cc1 | inactive |
| C[C@@H]1CN([C@H](C)CO)C(=O)Cc2cc(NS(C)(=O)=O)ccc2O[C@H]1CN(C)S(=O)(=O)c1ccccc1 | inactive |
| O=C(CCCCCNC(=O)OCCCCO[C@@H]1C[C@H](c2ccc3c(c2)OCO3)C=C(C(=O)N2CCOCC2)O1)NO | inactive |
| Cc1noc(C)c1NC(=O)Nc1ccc2c(c1)CC(=O)N([C@@H](C)CO)C[C@@H](C)[C@H](CN(C)S(=O)(=O)c1ccccc1)O2 | inactive |
| C[C@H](CO)N1C[C@H](C)[C@@H](CN(C)C(=O)Nc2ccccc2C(F)(F)F)OCc2cn(nn2)CCCC1=O | inactive |
| NC1=N[C@H]2CS[C@@H](CCCCC(=O)O)[C@H]2N1 | inactive |
| C[C@@H]1CN([C@@H](C)CO)C(=O)c2cc(NS(=O)(=O)c3cccs3)ccc2O[C@@H](C)CCCCO[C@@H]1CN(C)C(=O)Nc1ccc2c(c1)OCO2 | inactive |
| NC[C@H]1O[C@H](O[C@H]2[C@@H](O[C@@H]3O[C@H](CO)[C@@H](O)[C@H]3O)[C@@H](O)[C@H](N)C[C@@H]2N)[C@H](N)[C@@H](O)[C@@H]1O | inactive |
| Cn1cnc(S(=O)(=O)N[C@H]2C=C[C@H](CC(=O)NCC3CC3)O[C@@H]2CO)c1 | inactive |
| C[C@H](CO)N1C[C@H](C)[C@H](CN(C)C(=O)CN(C)C)Oc2ncc(C#CC3(O)CCCC3)cc2C1=O | inactive |
| C[C@@H]1CN([C@H](C)CO)C(=O)c2cc(NC(=O)Nc3ccccc3)ccc2O[C@H]1CN(C)Cc1ccc(C(F)(F)F)cc1 | active |
| C[C@@H]1CN([C@@H](C)CO)C(=O)c2cc(NC(=O)CCC(F)(F)F)ccc2O[C@@H](C)CCCCO[C@@H]1CN(C)Cc1ccncc1 | inactive |
| CCN(CC)CCOCCOC(=O)C1(c2ccccc2)CCCC1.O=C(O)CC(O)(CC(=O)O)C(=O)O | active |
| Cc1ccc(S(=O)(=O)N(C)C[C@H]2Oc3ccc(NS(=O)(=O)c4cccs4)cc3C(=O)N([C@H](C)CO)C[C@H]2C)cc1 | inactive |
| Cc1noc(C)c1S(=O)(=O)Nc1ccc2c(c1)C(=O)N([C@H](C)CO)C[C@H](C)[C@H](CN(C)C(=O)Nc1ccccc1)OCCCC[C@H](C)O2 | inactive |
